# Paper PMC11758731
# Chains of the proteins cited; added tags and fusions are not shown.
# UniProt Q8N9U0: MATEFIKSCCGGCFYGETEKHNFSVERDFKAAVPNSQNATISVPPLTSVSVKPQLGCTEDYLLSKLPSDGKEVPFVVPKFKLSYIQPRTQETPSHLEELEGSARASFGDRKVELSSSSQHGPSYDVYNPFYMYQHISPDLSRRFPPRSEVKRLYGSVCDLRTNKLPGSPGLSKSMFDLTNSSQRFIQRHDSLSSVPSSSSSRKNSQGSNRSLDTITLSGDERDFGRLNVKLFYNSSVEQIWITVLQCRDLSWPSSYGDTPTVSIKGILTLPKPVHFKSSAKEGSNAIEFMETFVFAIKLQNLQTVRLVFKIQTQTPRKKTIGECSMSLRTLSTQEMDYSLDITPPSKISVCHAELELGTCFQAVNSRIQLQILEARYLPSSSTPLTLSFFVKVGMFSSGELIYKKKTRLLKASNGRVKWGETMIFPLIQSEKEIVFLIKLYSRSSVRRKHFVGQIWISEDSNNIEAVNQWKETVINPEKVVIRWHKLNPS
# UniProt P51452: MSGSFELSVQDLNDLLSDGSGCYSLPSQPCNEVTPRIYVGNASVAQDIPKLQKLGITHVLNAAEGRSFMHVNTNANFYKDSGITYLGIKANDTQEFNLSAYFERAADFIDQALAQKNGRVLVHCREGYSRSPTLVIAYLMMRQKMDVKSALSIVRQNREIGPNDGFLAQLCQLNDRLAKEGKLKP
# UniProt Q9D7X3: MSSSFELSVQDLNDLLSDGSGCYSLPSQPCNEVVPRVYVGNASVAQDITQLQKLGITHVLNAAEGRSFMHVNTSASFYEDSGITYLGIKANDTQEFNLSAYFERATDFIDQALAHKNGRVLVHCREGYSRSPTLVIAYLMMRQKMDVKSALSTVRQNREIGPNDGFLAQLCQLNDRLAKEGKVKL
# UniProt P27361: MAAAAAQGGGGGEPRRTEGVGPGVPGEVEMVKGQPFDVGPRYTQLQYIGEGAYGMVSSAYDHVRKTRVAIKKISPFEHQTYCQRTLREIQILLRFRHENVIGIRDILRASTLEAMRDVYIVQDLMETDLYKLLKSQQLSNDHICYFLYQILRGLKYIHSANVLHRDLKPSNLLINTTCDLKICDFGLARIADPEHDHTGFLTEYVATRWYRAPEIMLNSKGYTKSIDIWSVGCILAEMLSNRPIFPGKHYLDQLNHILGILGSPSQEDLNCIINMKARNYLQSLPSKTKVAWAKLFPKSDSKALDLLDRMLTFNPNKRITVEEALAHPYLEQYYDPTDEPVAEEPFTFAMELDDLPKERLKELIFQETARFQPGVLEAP
# UniProt Q63844: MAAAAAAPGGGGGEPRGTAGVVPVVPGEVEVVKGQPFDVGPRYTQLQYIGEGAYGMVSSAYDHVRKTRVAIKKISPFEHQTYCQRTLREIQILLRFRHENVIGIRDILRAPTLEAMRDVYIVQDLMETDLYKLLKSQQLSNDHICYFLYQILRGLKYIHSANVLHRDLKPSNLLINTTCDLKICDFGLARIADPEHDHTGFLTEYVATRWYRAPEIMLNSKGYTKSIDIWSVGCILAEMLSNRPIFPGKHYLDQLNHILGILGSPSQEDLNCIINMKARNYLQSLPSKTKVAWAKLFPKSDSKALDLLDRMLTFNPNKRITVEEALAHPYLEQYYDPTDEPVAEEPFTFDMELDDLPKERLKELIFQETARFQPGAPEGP
# UniProt P28482: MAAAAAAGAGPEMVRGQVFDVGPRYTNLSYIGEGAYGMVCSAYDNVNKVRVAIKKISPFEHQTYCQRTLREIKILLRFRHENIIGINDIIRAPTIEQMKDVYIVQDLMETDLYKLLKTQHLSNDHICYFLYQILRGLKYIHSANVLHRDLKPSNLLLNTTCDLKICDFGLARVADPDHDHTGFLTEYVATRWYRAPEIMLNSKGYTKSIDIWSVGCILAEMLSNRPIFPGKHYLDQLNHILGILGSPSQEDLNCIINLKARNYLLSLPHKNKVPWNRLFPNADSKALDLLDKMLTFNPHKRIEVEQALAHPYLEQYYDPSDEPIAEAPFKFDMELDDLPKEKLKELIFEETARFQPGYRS
# UniProt P63085: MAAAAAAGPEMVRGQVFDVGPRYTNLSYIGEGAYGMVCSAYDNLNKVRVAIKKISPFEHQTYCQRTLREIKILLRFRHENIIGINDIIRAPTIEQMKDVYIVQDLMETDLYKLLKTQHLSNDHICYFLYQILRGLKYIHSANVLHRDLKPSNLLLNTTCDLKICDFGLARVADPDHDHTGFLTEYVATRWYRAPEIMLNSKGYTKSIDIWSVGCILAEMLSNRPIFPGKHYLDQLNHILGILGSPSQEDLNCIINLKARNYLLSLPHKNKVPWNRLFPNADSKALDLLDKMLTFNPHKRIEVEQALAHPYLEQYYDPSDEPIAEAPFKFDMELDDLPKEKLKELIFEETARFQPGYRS
# UniProt Q05397: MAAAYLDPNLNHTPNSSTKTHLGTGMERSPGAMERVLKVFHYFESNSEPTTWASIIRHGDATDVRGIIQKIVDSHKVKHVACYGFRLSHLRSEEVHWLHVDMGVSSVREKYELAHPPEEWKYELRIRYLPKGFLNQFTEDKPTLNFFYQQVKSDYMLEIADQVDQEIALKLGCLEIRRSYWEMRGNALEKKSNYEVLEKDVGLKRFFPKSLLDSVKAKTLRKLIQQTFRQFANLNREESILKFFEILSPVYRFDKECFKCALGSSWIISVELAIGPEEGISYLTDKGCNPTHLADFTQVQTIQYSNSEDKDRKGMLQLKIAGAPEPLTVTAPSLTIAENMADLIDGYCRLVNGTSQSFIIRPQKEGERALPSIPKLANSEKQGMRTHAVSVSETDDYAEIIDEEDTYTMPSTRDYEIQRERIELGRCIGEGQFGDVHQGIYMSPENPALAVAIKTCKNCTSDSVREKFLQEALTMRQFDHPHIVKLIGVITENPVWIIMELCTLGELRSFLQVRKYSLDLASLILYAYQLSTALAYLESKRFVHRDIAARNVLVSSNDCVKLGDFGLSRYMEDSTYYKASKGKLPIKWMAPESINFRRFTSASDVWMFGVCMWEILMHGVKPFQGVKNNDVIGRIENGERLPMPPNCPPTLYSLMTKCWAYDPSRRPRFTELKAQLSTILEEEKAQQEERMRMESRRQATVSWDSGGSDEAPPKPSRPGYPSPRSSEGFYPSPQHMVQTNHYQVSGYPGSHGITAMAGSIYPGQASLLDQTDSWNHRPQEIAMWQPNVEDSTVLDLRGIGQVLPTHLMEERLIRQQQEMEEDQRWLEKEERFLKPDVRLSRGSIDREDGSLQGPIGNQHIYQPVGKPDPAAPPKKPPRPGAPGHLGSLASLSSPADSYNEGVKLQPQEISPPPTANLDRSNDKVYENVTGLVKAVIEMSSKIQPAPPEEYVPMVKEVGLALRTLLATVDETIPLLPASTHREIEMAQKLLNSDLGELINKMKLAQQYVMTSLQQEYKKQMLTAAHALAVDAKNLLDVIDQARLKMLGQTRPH
# UniProt P34152: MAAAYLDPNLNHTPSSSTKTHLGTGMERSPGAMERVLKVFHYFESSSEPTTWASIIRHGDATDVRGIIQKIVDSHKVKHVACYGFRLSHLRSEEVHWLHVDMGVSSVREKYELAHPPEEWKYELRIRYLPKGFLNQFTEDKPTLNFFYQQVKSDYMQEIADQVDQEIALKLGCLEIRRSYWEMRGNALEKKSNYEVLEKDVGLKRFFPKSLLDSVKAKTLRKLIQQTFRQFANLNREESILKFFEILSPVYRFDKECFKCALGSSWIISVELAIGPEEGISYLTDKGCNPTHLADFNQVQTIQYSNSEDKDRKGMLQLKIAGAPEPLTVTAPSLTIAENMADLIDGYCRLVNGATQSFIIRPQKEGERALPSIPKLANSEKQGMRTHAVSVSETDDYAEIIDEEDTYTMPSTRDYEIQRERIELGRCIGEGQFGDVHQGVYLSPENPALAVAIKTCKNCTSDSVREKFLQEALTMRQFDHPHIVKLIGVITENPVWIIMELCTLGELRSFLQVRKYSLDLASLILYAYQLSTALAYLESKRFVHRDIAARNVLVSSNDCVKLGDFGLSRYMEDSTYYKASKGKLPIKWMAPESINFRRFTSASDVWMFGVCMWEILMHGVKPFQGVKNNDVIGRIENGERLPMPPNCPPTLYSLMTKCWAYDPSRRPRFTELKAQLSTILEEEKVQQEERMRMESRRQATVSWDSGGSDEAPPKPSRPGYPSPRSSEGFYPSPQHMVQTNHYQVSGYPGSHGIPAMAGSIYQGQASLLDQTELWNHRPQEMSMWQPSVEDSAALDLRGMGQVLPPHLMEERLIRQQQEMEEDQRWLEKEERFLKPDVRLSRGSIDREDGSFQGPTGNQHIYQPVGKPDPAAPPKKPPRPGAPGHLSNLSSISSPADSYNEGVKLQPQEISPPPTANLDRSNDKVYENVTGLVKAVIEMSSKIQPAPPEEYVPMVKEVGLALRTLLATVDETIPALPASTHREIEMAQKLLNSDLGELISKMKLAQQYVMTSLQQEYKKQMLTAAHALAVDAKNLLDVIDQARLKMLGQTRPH
# UniProt P40763: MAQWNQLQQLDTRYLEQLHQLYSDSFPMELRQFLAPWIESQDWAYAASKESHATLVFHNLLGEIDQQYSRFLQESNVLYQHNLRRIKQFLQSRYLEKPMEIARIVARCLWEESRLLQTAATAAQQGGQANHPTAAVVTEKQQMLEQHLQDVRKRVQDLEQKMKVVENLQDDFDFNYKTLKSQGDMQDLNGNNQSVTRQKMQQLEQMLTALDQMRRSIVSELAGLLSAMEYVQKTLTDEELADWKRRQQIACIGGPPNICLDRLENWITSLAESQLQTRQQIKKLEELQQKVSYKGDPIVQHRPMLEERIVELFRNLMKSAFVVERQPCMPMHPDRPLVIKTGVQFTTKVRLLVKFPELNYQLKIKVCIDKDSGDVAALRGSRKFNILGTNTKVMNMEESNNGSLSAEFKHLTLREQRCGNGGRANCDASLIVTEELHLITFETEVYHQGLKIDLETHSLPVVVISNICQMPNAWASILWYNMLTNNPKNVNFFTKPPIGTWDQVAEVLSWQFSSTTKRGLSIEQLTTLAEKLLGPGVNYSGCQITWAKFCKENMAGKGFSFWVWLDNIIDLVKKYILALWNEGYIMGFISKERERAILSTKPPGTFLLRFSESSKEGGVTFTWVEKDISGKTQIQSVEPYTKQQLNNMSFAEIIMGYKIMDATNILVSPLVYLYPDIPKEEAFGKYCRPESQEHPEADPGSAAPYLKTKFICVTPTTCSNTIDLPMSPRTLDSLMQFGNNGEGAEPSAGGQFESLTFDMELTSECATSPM
# UniProt P42227: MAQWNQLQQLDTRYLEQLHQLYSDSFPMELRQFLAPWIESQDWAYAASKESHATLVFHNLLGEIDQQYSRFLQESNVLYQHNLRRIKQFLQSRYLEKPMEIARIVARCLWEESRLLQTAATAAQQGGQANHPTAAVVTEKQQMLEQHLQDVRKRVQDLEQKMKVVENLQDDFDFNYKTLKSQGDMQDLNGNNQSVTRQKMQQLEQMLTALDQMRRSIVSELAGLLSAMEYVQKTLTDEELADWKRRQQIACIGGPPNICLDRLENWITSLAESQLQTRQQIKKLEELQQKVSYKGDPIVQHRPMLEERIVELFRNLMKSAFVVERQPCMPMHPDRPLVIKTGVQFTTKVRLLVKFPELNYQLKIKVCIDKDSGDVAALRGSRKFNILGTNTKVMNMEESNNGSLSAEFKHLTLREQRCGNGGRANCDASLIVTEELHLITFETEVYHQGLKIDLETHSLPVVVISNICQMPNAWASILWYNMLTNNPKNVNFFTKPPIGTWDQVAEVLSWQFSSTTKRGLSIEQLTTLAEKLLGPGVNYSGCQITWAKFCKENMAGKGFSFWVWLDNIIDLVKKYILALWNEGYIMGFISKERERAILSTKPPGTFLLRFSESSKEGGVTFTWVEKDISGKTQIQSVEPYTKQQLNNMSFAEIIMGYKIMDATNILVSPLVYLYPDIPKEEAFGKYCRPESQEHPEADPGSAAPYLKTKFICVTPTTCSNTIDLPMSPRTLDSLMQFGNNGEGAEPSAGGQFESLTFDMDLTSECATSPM
# Results are given in words; binding and its absence hold for the method and conditions named. In cells and extracts the contact can be indirect. Some binding calls cover weakened binding; strength is not graded here.
# Legend:
# [1] = molecular target: Flag-TC2N (Tandem C2 domains, nuclear), full-length (UniProt Q8N9U0); test: co-IP; extracts of lung cancer cells, IP with anti-Flag antibody and protein A/G agarose beads, 16 h at 4 °C, Western blot with the indicated antibodies; normal IgG as negative control
# [2] = molecular target: dual specificity protein phosphatase 3 (DUSP3), endogenous in human lung cancer cells (human (endogenous in A549 and H522 lung cancer cells)) (UniProt P51452); test: co-IP; extracts of stable lung cancer cell lines (Flag-NC, Flag-TC2N full-length or truncations; TC2N overexpression), IP with anti-DUSP3 antibody and protein A/G agarose beads, 16 h at 4 °C, Western blot with the indicated or Flag antibodies; normal IgG as negative control
# [3] = molecular target: DUSP3, endogenous in mouse lung tumour (mouse (endogenous in lung tumour of C57BL/6J mice)) (UniProt Q9D7X3); test: co-IP; extracts of urethane-induced lung tumours of TC2N engineered mice (with or without TC2N deletion), IP with anti-DUSP3 antibody, Western blot with the indicated antibodies; normal IgG as negative control
Substance,binding [1],binding [2],binding [3]
"EGFR, endogenous in human lung cancer cells (from UniProt P00533 25-1210) (receptor)",no binding,binds,
"EGFR, endogenous in mouse lung tumour (from UniProt Q01279 25-1210) (receptor)",,,binds
"ERK1, endogenous in human lung cancer cells (from UniProt P27361 1-379) (enzyme)",no binding,binds,
"ERK1, endogenous in mouse lung tumour (from UniProt Q63844 1-380) (enzyme)",,,binds
"ERK2, endogenous in human lung cancer cells (from UniProt P28482 1-360) (enzyme)",no binding,binds,
"ERK2, endogenous in mouse lung tumour (from UniProt P63085 1-358) (enzyme)",,,binds
"FAK1, endogenous in human lung cancer cells (from UniProt Q05397 1-1052) (enzyme)",no binding,binds,
"FAK1, endogenous in mouse lung tumour (from UniProt P34152 1-1052) (enzyme)",,,binds
"Flag-TC2N (Tandem C2 domains, nuclear), full-length (from UniProt Q8N9U0 1-490)",,binds,
"STAT3, endogenous in human lung cancer cells (from UniProt P40763 1-770)",no binding,binds,
"STAT3, endogenous in mouse lung tumour (from UniProt P42227 1-770)",,,binds
"dual specificity protein phosphatase 3 (DUSP3), endogenous in human lung cancer cells (from UniProt P51452 1-185) (enzyme)",binds,,
